Assay results published in PubChem BioAssay AID686970 (National Center for Advancing Translational Sciences (NCATS), 2013).
About 6,000 (1.7%) of roughly 360,000 compounds were called active. This list was built around the results that the source calls inconclusive (neither active nor inactive); the mix of calls is not that of the screen. Calls follow the shape of the dose curve; as a rule, active = well fitted cell-killing curve with a large enough effect; inconclusive = small, poorly fitted or top-dose-only effect, or effect the other way; inactive = flat fitted curve, though single readings scatter. Potencies of inconclusive entries are left out as doubtful fits.

Assay: qHTS for induction of synthetic lethality in tumor cells producing 2HG: qHTS for the HT-1080-NT fibrosarcoma cell line;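 also: NT is the 2HG producing partner of a matched IDH1 knockdown line; nearly all actives have a fitted effect of over 55% in size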;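 as to activity, negative = less viability: 0% = DMSO-treated cells and -100% = media-only wells without cells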
Conditions: HT-1080-NT fibrosarcoma viability, CellTiter-Glo ATP luminescence, 48 h; activity, negative = less viability: at 46.1 µM (top of the series) unless noted
Summary of the method: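 HT-1080-NT; 750 cells/well; 5% FBS RPMI; 48 h compound, 37 degrees C; CellTiter-Glo luminescence; curve fitting and curve-class assignment.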
Potency is read from the fitted curve at half-maximal effect; tags tell the direction and shape of the fitted curve.

| SMILES | Potency | activity, negative = less viability |
| --- | --- | --- |
| CC(Oc1ccc(Cl)cc1Cl)c1nc(-c2ccc(NC(=O)c3cccnc3)cc2)no1 (stereo unspecified) | inconclusive [cytotoxic, partial curve] |  |
| Cn1ccnc1SCC(=O)Nc1cc(F)ccc1F | inconclusive [rising, single point] |  |
| CCCn1c(N)c(N(CCOC)C(=O)c2cc(S(=O)(=O)N3CCCCCC3)ccc2OC)c(=O)[nH]c1=O | inactive |  |
| COC(=O)c1c(NC(=O)CSc2nnnn2-c2ccccc2)sc2c1CCC(C)C2 (stereo unspecified) | inactive |  |
| CCC1CC(C(=O)Nc2ccccc2)C(=O)O1 (stereo unspecified) | inactive |  |
| O=C(c1ccc(Cl)c(Cl)c1)N1CCC(=O)N([C@H](COCc2cccc(C(F)(F)F)c2)Cc2ccccc2)CC1 | inconclusive [cytotoxic, single point] |  |
| COC(=O)c1c(CCl)noc1C(=O)NC(C)C | inconclusive [cytotoxic, single point] |  |
| CN(CCc1ccccc1)C(=O)c1ccc(NC(=O)Cc2ccc(NC(=O)C3CCN(S(=O)(=O)c4cccc([N+](=O)[O-])c4)CC3)cc2)cc1 |  | inconclusive: -2.39% [cytotoxic] |
| N#Cc1c(-c2cccs2)cc(C2CC2)nc1SCC(N)=O | inconclusive [cytotoxic, partial curve] |  |
| O=[N+]([O-])c1ccc(O)c(/C=N/Nc2ccc(Cl)nn2)c1 | inconclusive [cytotoxic, full curve] |  |
| O=C(NCCCN1CCOCC1)c1ccc2c(c1)N(Cc1ccccc1F)C(=O)c1ccccc1S2=O (stereo unspecified) | inactive |  |
| Nc1c(C(=O)Nc2ccccc2F)sc2nc(-c3ccco3)ccc12 | inconclusive [cytotoxic, single point] |  |
| CCn1c(C(=O)NCc2cccnc2)cc2sc(Cl)cc21 | inconclusive [cytotoxic, partial curve, poor fit] |  |
| CCOC(=O)CN1C(=O)S/C(=C/c2cc(C)n(-c3ccccn3)c2C)C1=O | inactive |  |
| CCOC(=O)c1ccc(Nc2nc(-c3cccnc3)nc3ccccc23)cc1 | active: 14.6 µM |  |
| O=C(Nc1cc(C(=O)N2CCCC2)ccc1N1CCCC1)c1ccccc1 |  | inconclusive: -24.3% [cytotoxic] |
| c1ccc(COc2cccc(CNCc3cccs3)c2)cc1 | inconclusive [cytotoxic, single point] |  |
| NN=C1c2ccccc2C(=O)C1C(=O)C(c1ccccc1)c1ccccc1 (stereo unspecified) | inactive |  |
| CCOC(=O)C1=CCN(S(=O)(=O)c2ccc(C)cc2)C1c1ccc(Cl)c(Cl)c1 (stereo unspecified) |  | inconclusive: -32% [cytotoxic] |
| COc1ccc(S(=O)(=O)Nc2cccc(SC)c2)cc1OC | inactive |  |
| CCCNC(=O)c1ccccc1NC(=O)c1ccccc1N(C)S(=O)(=O)c1ccc(C)cc1 | inconclusive [cytotoxic, single point] |  |
| COc1ccc(Br)cc1CN(C)CC(=O)Nc1c(Cl)ccc(C)c1Cl |  | inconclusive: -30.1% [cytotoxic] |
| NNC(=O)CN1C(c2ccc(Br)cc2)=Nc2ccc(Br)cc2C1c1ccccc1 (stereo unspecified) | inconclusive [cytotoxic, single point] |  |
| c1ccc(C(c2c[nH]c3ccccc23)c2c[nH]c3ccccc23)nc1 | inconclusive [cytotoxic, partial curve] |  |
| CCSc1nc2c([nH]c3ccccc32)c(=O)n1C | inactive |  |
| CO/N=C/c1ccc(N2CCN(C(=O)c3ccc(Cl)cc3Cl)CC2)c([N+](=O)[O-])c1 | inconclusive [cytotoxic, single point] |  |

| SMILES | Potency | activity, negative = less viability |
| --- | --- | --- |
| Nc1c(C(=O)Nc2ccccc2)c2nc3ccccc3nc2n1CCCN1CCOCC1 | active: 23.1 µM |  |
| CCOc1ccc(C(=O)Nc2ccccc2N2CCOCC2)cc1 | inactive |  |
| Cc1cc(NC(=O)c2ccccc2F)n(-c2nc3ccccc3[nH]2)n1 | inconclusive [cytotoxic, single point] |  |
| COc1ccc2[nH]cc(CCNC(=O)c3ccccc3Cl)c2c1 | inactive |  |
| Cc1oc2cc(O)cc(C)c2c(=O)c1-c1cnn(-c2ccccc2)c1 | inconclusive [cytotoxic, single point] |  |
| Cc1ccc(S(=O)(=O)N/N=C\c2cn(-c3ccccc3)nc2-c2ccccc2)cc1 | inconclusive [cytotoxic, single point] |  |
| CSCCC(c1nc2ccccc2[nH]1)n1c(=O)c(-c2cc3ccccc3[nH]2)nc2ccccc21 (stereo unspecified) | inconclusive [cytotoxic, single point] |  |
| CCNc1sc(C(=O)OCC)c(N)c1C#N | inactive |  |
| CC(=O)C1(C)C(=O)N(c2ccc(F)cc2)C(=O)N1c1ccc(F)cc1 (stereo unspecified) | inactive |  |
| COc1ccc(-c2nnc(N3CCCCC3)c3ccccc23)cc1 | inactive |  |
| CC(C)c1ccc(NC(=O)CSc2ncccc2C(=O)Oc2cccc([N+](=O)[O-])c2)cc1 | inconclusive [cytotoxic, single point] |  |
| CC(C)C(N)c1csc(NC(=O)Nc2ccc(OC(F)(F)F)cc2)n1 (stereo unspecified) | active: 8.2 µM |  |
| CCN(CC(=O)NCC1CCCO1)S(=O)(=O)c1ccc(Cl)cc1 (stereo unspecified) | inactive |  |
| Cc1cnc(NC(=O)c2cccc(S(=O)(=O)N3CC(C)OC(C)C3)c2)s1 (stereo unspecified) | inactive |  |
| COc1cccc(NC(=O)C2C3C=CC(C3)C2C(=O)O)c1 (stereo unspecified) | inconclusive [cytotoxic, partial curve] |  |
| COc1ccc(/C=C/C(=O)NC2CCCCCCC2)cc1S(=O)(=O)N1CCOCC1 | inconclusive [cytotoxic, single point] |  |
| Cc1ccc(/C=N/NC(=O)C2=NNC(c3ccccc3)(c3ccccc3)C2)c(O)c1 | inconclusive [cytotoxic, full curve] |  |
| COC(=O)c1c(C)n(-c2ccc(C)cc2)c2ccc(O)cc12 | active: 12.6 µM |  |
| Cc1cccc(C)c1Nc1nnc(SCc2cc([N+](=O)[O-])cc3c2OCOC3)s1 | inconclusive [cytotoxic, single point] |  |
| Cc1ccc2c(=O)n3c(nc2c1)C(C)NC(=O)c1cccnc1-3 (stereo unspecified) | inactive |  |
| CCSc1nsc(NC(=O)Nc2ccccc2F)n1 | inconclusive [cytotoxic, single point] |  |
| O=C(NC(=S)Nc1cccc2c(O)cccc12)c1cccc(Br)c1 | inconclusive [cytotoxic, single point] |  |
| O=C(CSc1nnnn1-c1cccc2ccccc12)NC(C(=O)O)(c1ccccc1)c1ccccc1 | inactive |  |
| Clc1ccccc1C(c1ccccc1)(c1ccccc1)n1ccnc1 | inconclusive [cytotoxic, single point] |  |
| CCc1ccc2[nH]c(=O)c(CN(Cc3ccco3)S(=O)(=O)c3ccc4c(c3)OCCO4)cc2c1 | inactive |  |
| COc1ccc(C(=O)/C=C/c2ccc(OC)c(COc3ccc(F)cc3)c2)cc1 | inactive |  |

| SMILES | Potency | activity, negative = less viability |
| --- | --- | --- |
| CCC(C)NC(=O)CC(c1ccc(OC)cc1)n1cccc1 (stereo unspecified) | inactive |  |
| CCN(CC)c1ccc(/C=N/N=C(N)N)c(O)c1 | active: 1.03 µM |  |
| CCOc1cc(CNC2CCCC2)cc(Cl)c1OCc1ccccc1 | active: 20.6 µM |  |
| CN(C)c1ccc(/C=N/NC(=O)c2ccccc2Cl)cc1 | active: 11.6 µM |  |
| COCC(=O)Nc1ccc(OC)c(Cl)c1 | inconclusive [rising, single point] |  |
| CC(O)CC(C(=O)NNc1ccccc1)C(=O)NNc1ccccc1 (stereo unspecified) | active: 1.3 µM |  |
| CC1CCCCN1c1cc(C#N)c(C#N)cc1[N+](=O)[O-] (stereo unspecified) | inactive |  |
| OC(Cc1cccc(C=NN2CCOCC2)n1)(C(F)(F)F)C(F)(F)F | inactive |  |
| CCOC(=O)C1CCCN(Cc2nc(N)nc(Nc3ccc(OC)cc3)n2)C1 (stereo unspecified) | inactive |  |
| Cc1cccc(/C=C/c2onc(C)c2[N+](=O)[O-])n1 | inconclusive [cytotoxic, full curve] |  |
| COc1ccccc1Cn1c(CCCO)nc2ccccc21 | inactive |  |
| COc1ccc(CCC(=O)NC2=NCCS2)cc1OC | inactive |  |
| COc1ccc(S(=O)(=O)N2CCOC2CNC(=O)C(=O)NCCN2CCOCC2)cc1OC (stereo unspecified) | inactive |  |
| COc1ccc(Cn2c(C)c(C)c(C#N)c2NC(=O)Nc2cccc(C)c2)cc1 | inconclusive [cytotoxic, single point] |  |
| CCOC(=O)c1ccc(OC(=O)CCCCCN=C(N)N)cc1 | inconclusive [rising, single point] |  |
| Cc1ccc(/C=C2/SC(=S)N(CCCC(=O)Nc3ccc(O)cc3)C2=O)cc1 | active: 16.4 µM |  |
| CN(C)C(=O)CCc1ccc2c3c([nH]c2c1)[C@]1(C)[C@@H](C(=O)N2CCCCC2)C[C@H](CC(=O)NCc2cccc(C(F)(F)F)c2)C(=O)N1CC3 | inactive |  |
| CCOC(=O)Nc1ccc2c(c1)ncn2C1CCCCC1 | inactive |  |
| OCc1ccc(O)c2ncccc12 | inconclusive [cytotoxic, single point] |  |
| COc1ccc2c(c1)[nH]c1c(N3CCSCC3)ncnc12 | inconclusive [cytotoxic, partial curve] |  |
| Cc1cc(NC(=O)COc2ccc3ccccc3c2Br)no1 | inconclusive [cytotoxic, single point] |  |
| CCCCOc1c(Cl)cc(CNC(C)(C)CO)cc1OCC | inconclusive [cytotoxic, single point] |  |
| COc1cc(C2C3=C(COC3=O)OC(C)(C)Oc3cc4c(cc32)OCO4)cc(OC)c1OC (stereo unspecified) | inconclusive [cytotoxic, full curve] |  |
| Cc1noc(C)c1CSCC(=O)Nc1cc(C(F)(F)F)ccc1N1CCOCC1 | inactive |  |
